# Results from PMC4336329 (PLoS ONE, 2015).
# Out of some 310,000 compounds screened, about 14,000 (4.5%) showed an effect of 50% or more. Effects have a minus sign here. The list shows a part of the results.
# Target: human ether-à-go-go-related gene (hERG) potassium channel (human, UniProt Q12809)
# Assay: primary screen, population patch clamp on CHO cells stably expressing hERG
# 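Also: peak tail current of the secondary pulse compared with the same well before compound.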
# Chain of human ether-à-go-go-related gene (hERG) potassium channel (Q12809 whole entry, looked up): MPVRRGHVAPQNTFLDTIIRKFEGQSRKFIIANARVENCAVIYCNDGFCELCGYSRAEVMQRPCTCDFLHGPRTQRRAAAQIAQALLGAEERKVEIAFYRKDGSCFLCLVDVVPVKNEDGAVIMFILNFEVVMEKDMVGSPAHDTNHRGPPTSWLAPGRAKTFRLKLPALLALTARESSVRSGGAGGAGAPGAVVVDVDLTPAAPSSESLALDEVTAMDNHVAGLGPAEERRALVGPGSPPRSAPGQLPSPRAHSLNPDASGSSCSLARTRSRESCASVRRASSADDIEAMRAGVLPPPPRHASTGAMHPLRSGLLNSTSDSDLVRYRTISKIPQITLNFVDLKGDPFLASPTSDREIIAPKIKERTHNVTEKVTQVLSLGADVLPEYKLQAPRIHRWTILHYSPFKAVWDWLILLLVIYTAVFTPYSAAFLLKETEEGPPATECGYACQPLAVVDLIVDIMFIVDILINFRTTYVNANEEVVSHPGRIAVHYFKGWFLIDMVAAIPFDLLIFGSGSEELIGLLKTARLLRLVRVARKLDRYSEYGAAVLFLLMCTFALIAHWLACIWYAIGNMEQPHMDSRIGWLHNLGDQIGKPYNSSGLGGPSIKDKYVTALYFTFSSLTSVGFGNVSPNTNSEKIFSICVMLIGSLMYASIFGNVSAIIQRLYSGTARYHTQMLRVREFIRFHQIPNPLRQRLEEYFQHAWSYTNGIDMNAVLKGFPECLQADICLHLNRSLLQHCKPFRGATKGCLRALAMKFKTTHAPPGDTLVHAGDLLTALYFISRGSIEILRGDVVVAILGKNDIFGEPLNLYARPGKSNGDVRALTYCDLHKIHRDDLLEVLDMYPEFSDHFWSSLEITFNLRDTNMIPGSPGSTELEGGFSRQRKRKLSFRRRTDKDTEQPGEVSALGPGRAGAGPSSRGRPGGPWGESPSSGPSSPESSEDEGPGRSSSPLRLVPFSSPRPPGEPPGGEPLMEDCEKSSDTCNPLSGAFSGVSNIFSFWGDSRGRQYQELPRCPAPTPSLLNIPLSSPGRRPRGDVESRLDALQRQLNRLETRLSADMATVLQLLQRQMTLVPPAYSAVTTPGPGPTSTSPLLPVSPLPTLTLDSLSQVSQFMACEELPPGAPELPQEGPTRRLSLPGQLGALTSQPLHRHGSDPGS
row,Compound,"hERG current change (%, negative = inhibition) at 10uM [%]"
1,CCCCOC(=O)c1nnc(-c2ccc(Cl)cc2)o1,-1.95
2,O=[N+]([O-])c1cccc(OCc2cn3cccnc3n2)c1,0.503
3,CC(C)c1nc(CNC(=O)c2ccc(OC3CCN(Cc4ccccn4)CC3)cc2)cs1,-16.6
4,CCc1ccc(C(=O)Cc2cc3cccc(OC)c3oc2=O)cc1,11.2
5,Cc1nc2scc(-c3ccc(C(C)C)cc3)c2c(=O)n1N,11.8
6,O=C(CSc1ccc2nnc(-c3cccnc3)n2n1)Nc1ccccc1,-17.8
7,COc1ccc(-c2nnc(N(C)C(=O)C3CCOC3)s2)cc1 (stereo not shown),9.84
8,COc1ccc2cc(C(C)C(=O)O)ccc2c1 (stereo not shown),7.65
9,Cn1c(CN2CCN(c3cccc(Cl)c3)CC2)nc2ccccc21,-44.7
10,COc1ccc(CCN(C(=O)c2ccco2)C(C(=O)NC2CCCC2)c2ccncc2)cc1OC (stereo not shown),-55
11,COC(=O)Cn1ncc(N2CC(C)OC(C)C2)c(Cl)c1=O (stereo not shown),22.6
12,CC(C(=O)NCc1ccccn1)c1ccc([N+](=O)[O-])cc1 (stereo not shown),-49.5
13,CC(=O)NC(Cc1ccccc1F)C(=O)NC1CCN(C(=O)NCc2ccccc2)CC1 (stereo not shown),14.8
14,O=C(O)/C=C\C(=O)Nc1ccccc1C#Cc1ccccc1,3.73
15,O=c1ccc(=O)n(-c2ccccc2)[nH]1,6.5
16,CCOC(=O)Nc1cc(C(=O)OC)ccc1C,-2.44
17,Cc1ccc2[nH]c(=S)cc(C)c2c1,19.9
18,CSc1nnc(C)c(=O)n1COC(=O)c1ccc(S(=O)(=O)N2CCCC2)cc1,-22.8
19,CCC(Oc1ccccc1)C(=O)Nc1ccc(S(=O)(=O)Nc2cnc3ccccc3n2)cc1 (stereo not shown),-4.59
20,O=C(NCc1ccco1)c1nn(-c2ccccc2)c(=O)c2ccccc12,-12.4
21,Cc1ccc(C)c(/C=N/n2cc(-c3ccccc3)[nH]c2=S)c1,21.8
22,Cc1ccc(SCC(=O)NC(=O)Nc2ccc3c(c2)OCCO3)c(C)c1,4.24

row,Compound,"hERG current change (%, negative = inhibition) at 10uM [%]"
1,Cc1ccc(C2=NOC(c3nnc(-c4ccccc4)o3)C2)cc1 (stereo not shown),-0.301
2,COc1ccc(-c2nc(CS(=O)CC(=O)NCCN3CCCCC3C)c(C)o2)cc1OC (stereo not shown),16.8
3,Cn1nc(-c2ccc(Cl)cc2)c2cc(C(=O)NCc3ccco3)sc21,-2.54
4,CC(Sc1nc(-c2ccccc2)cc(C(F)(F)F)n1)C(=O)O (stereo not shown),20
5,Cc1ccc2oc(=O)n(CCCOc3ccccc3)c2c1,-20.3
6,COc1cc(S(C)=O)ccc1-c1nc2ncccc2[nH]1 (stereo not shown),4.97
7,O=C(CN1C(=O)CCC1=O)c1ccc(-c2ccccc2)cc1,-6.79
8,CN(C)S(=O)(=O)c1cccc(COc2ncnc3c(Cl)cc(Cl)cc23)c1,5.03
9,CCC1COCCS(=O)(=O)N1Cc1ccccc1 (stereo not shown),7.65
10,CC1(C)Oc2cc3oc(-c4cc(O)cc(O)c4)cc3cc2CC1O (stereo not shown),9.93
11,COc1cccc(-c2nc(-c3ccccc3)c(-c3ccccc3)[nH]2)c1OCC(=O)O,10.5
12,COc1cc(C(=O)N(Cc2ccc(N(C)C)cc2)C2CCS(=O)(=O)C2)cc(OC)c1OC (stereo not shown),-1.43
13,COc1ccc(S(=O)(=O)NCCc2ccccc2)cc1,-9.27
14,O=C(NNC(=O)c1ccccc1Br)c1ccncc1,10.1
15,CCC[C@@H](CN[C@@H](CNC)[C@H](C)CC)NCC1CCC(C(C)(C)C)CC1 (stereo partly shown),-4.33
16,COc1cc2c(cc1OC)CN(C(=O)C(C)(C)C)CC2,17.6
17,Nc1c(C(=O)Nc2ccc3c(c2)OCCO3)nnn1Cc1ccccc1,-3.13
18,COc1ccc(OC)c(NC(=O)CSc2nncc3ccc(OC)c(OC)c23)c1,6.73
19,COc1cc(C2C(C#N)=C(N)N(c3sc4c(c3C#N)CCCC4)C3=C2C(=O)CC(C)(C)C3)cc(OC)c1OC (stereo not shown),-18.6
20,COc1ccc(N(C(=O)Cn2nnc(-c3ccc(C)o3)n2)C(C(=O)NC2CCCC2)c2ccncc2)cc1 (stereo not shown),14.8
21,S=C(NCc1ccco1)Nc1ccc(Cl)cc1,-0.891
22,O=C(CNC(=O)c1ccccc1)OC1CCCCC1,-1.49

row,Compound,"hERG current change (%, negative = inhibition) at 10uM [%]"
1,COc1ccc(CCNC(=O)CN2CCN(Cc3ccccc3F)C2=O)cc1OC,8.26
2,CN(C)S(=O)(=O)c1cccc(NC(=O)COC(=O)c2cc3ccccc3oc2=O)c1,-4.96
3,Cc1cc(C)nc(/N=C2\NC(=O)CC(C(=O)O)N2c2ccc(F)c(Cl)c2)n1 (stereo not shown),21.5
4,O=C(CNC(=O)c1ccc(N2C(=O)c3ccccc3C2=O)cc1)OCC(=O)c1cccc2ccccc12,27.1
5,CCCCc1n[nH]c2c1/C(=N/O)CC(C)(C)C2,-4.12
6,CC(C)OC(=O)CC(=O)CSc1nc2c(cc1C#N)CCCC2,-12.7
7,O=C(NCCNc1ccc(Cl)cc1[N+](=O)[O-])c1ccccc1F,3.81
8,Cc1cc(/C=C2/NC(=O)NC2=O)c(C)n1-c1sc2c(c1C#N)CCCC2,3.07
9,O=C(Cn1cnc2c(oc3ccccc32)c1=O)NCc1ccco1,-4.95
10,CCc1ccccc1NC(=O)CN(c1ccc(OC)cc1OC)S(=O)(=O)c1ccccc1,6.82
11,CCc1cccc(CC)c1NC(=O)/C(C#N)=C/c1ccccc1C(F)(F)F,21.4
12,CCC(C)(C)NC(=O)C(c1ccc(F)cc1)N(Cc1ccco1)C(=O)c1cnccn1 (stereo not shown),-1.65
13,Cc1noc(C)c1S(=O)(=O)N1CCCC(C(=O)N2CCC(C)CC2)C1 (stereo not shown),-3.8
14,CC(C)CNC(=O)COC(=O)Cc1ccc(Cl)cc1,12.5
15,Cc1nc(-c2ccncc2)sc1C(=O)Nc1ccc(Cl)cc1,13.3
16,O=C(NCC1CCCO1)c1cc(C(=O)C2CCCCC2)c[nH]1 (stereo not shown),15.4
17,Cc1c(OC(C)C(=O)NC(Cc2c[nH]c3ccc(O)cc23)C(=O)O)ccc2c1oc(=O)c1ccccc12 (stereo not shown),1.93
18,COc1cc(C2C(C(=O)c3cccs3)=C(O)C(=O)N2c2cc(C)on2)ccc1O (stereo not shown),-0.278
19,CCOc1ccc(-c2[nH]ncc2-c2ccccc2)c(O)c1,0.809
20,COc1cc(/C=C/C(=O)Nc2cccc(S(=O)(=O)N3CCOCC3)c2)ccc1OCC#N,-25.8
21,CC(C)CCN1CCN(CC#Cc2ccccc2)CC1CCO (stereo not shown),-49.9
22,COc1ccc(-n2nc(C(=O)Nc3ccc4c(c3)OCO4)c3c4ccccc4n(C)c3c2=O)cc1,15.5

row,Compound,"hERG current change (%, negative = inhibition) at 10uM [%]"
1,COc1ccc(CNC(=O)C(C)n2ccc3cc(S(=O)(=O)N4CCCCCC4)ccc32)cc1 (stereo not shown),1.82
2,CCOC(=O)c1c(C)c(C(=O)Nc2cc(F)ccc2F)c(C)n1C,13.9
3,Cc1onc(-c2ccccc2)c1NC(=O)N(CCC#N)Cc1cccs1,7.93
4,CCn1c(SCC(=O)Nc2ccccc2Cl)nnc1C1CC1,6.78
5,CCN(CC)S(=O)(=O)c1cc(C(=O)NC2=NCCS2)ccc1Cl,4.64
6,CC(C)c1nc(C#N)c(NN)o1,14.7
7,COc1ccccc1NC(=O)c1ccc(CSc2ccccc2)o1,-8.57
8,COc1cccc(OCc2cc(C(=O)N3CCC(c4ccncc4)CC3)no2)c1,-40.9
9,Cc1cc(C)nc(SCc2nnc(SCC(N)=O)o2)n1,15.7
10,CCCCCC(=O)N/N=C/c1cc(Br)c(O)c(OC)c1,-1.34
11,NC(=O)C1CCN(C(=O)Cc2ccsc2)CC1,-1.15
12,COc1ccc(NC2=Nc3ccccc3N3C2=Nc2c(c(C)nn2-c2ccc(C)cc2)C3c2cccnc2)cc1 (stereo not shown),12.3
13,Cc1ccc(NC(=O)c2nc[nH]c2C(=O)N[C@H](C)c2ccccc2)cc1,21.4
14,COC(=O)c1ccc(/C=N/NC(=O)C2CC(=O)N(c3ccc(F)cc3)C2)cc1 (stereo not shown),3.98
15,COc1ccccc1CCC(=O)Oc1ccc(C#N)cc1OC,-3.46
16,CCN1CCN(Cc2nc3c(c(=O)n(C)c(=O)n3C)n2C(C)C(C)=O)CC1 (stereo not shown),12.1
17,CC(OC(=O)c1ccccc1OCc1ccc(Cl)cc1)C(N)=O (stereo not shown),14.3
18,Cc1ccc(C(=O)N(CCCN(C)C)c2nc3ccc(Cl)cc3s2)cc1C.Cl,-56.4
19,Cc1ccc(C2CC(c3ccccc3OC(F)F)Nc3ncnn32)cc1 (stereo not shown),-22.5
20,COc1ccc(/C=N/NC(=O)c2ccc(C)cc2)cc1CN1CCN(c2ccc(F)cc2)CC1,-69.8
21,CCNC(=O)c1ccc(CSc2ccc(Cl)cc2)cc1,-3.08
22,Cc1ccc(C(O)P(=O)(OC2CCCCC2)OC2CCCCC2)cc1 (stereo not shown),-0.47
